# Source: PubChem BioAssay
# The shares of active, inactive and inconclusive entries below differ from those in the screen. Active and inactive are the calls of the source.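 Rule for the calls, unless noted: active = thallium flux slope above the same plate's solvent-control mean plus 3 SD in both duplicate wells; inconclusive = duplicate wells that disagreed; inactive = the rest.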
# Key:
# [1] = compound effects on native HEK Tl+ uptake – HEK cells, counterscreen 1, counter-screen for KCC2 modulator project, confirmation (AID 1716;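 active = thallium flux rate significantly above the same plate's solvent-only control wells, beyond their mean plus 3 SD; inconclusive = the two replicate wells gave conflicting results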); conditions: HEK293 parental cells, thallium flux FluoZin2, ouabain; at 10 µM; baseline-ratio fluorescence slope, 10–20 s after thallium
# [2] = native HEK Tl+ uptake effects, second counter-screen – HEK cells, counterscreen 2, counter-screen for KCC2 modulator project, confirmation (AID 1718); conditions: HEK293 parental, thallium flux FluoZin-2 fluorescence slope; at 10 µM;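 note: run without ouabain in cells lacking the KCC2 cotransporter; slope of fluorescence scaled to its starting value between 10 and 20 s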
# Procedure, shortened: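 Test system: parental HEK cells / Reagent: thallium sulfate stimulus, 12 mM in buffer, pH 7.3 / Compound: single 10 µM final compound dose, 0.1% DMSO / Timing: overnight cell culture at 37 °C, 48 min dye loading, compound before thallium / Detection: FluoZin-2 fluorescence kinetics / Read-out: rate of F/F0 rise, 10–20 s after thallium addition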
# [3] = target: Solute carrier family 12 member 5 (Homo sapiens) (UniProt Q9H2X9); assay: modulation of KCC2 thallium flux in HEK cells – cell-based, ouabain, retest, confirmation (AID 1717;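 active = thallium flux slope beyond 3 SD from same-plate DMSO control mean in most replicates, usually higher, sometimes lower; inconclusive = repeat tests gave conflicting results; inactive = no significant difference from controls in most replicates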;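 note: slope of initial-normalized fluorescence between seconds 10 and 20 after thallium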); conditions: HEK293-KCC2, thallium flux FluoZin2 fluorescence, at 10 µM, bidirectional: low = inhibitor, high = activator
# UniProt Q9H2X9, sequence (Q9H2X9 whole entry, looked up): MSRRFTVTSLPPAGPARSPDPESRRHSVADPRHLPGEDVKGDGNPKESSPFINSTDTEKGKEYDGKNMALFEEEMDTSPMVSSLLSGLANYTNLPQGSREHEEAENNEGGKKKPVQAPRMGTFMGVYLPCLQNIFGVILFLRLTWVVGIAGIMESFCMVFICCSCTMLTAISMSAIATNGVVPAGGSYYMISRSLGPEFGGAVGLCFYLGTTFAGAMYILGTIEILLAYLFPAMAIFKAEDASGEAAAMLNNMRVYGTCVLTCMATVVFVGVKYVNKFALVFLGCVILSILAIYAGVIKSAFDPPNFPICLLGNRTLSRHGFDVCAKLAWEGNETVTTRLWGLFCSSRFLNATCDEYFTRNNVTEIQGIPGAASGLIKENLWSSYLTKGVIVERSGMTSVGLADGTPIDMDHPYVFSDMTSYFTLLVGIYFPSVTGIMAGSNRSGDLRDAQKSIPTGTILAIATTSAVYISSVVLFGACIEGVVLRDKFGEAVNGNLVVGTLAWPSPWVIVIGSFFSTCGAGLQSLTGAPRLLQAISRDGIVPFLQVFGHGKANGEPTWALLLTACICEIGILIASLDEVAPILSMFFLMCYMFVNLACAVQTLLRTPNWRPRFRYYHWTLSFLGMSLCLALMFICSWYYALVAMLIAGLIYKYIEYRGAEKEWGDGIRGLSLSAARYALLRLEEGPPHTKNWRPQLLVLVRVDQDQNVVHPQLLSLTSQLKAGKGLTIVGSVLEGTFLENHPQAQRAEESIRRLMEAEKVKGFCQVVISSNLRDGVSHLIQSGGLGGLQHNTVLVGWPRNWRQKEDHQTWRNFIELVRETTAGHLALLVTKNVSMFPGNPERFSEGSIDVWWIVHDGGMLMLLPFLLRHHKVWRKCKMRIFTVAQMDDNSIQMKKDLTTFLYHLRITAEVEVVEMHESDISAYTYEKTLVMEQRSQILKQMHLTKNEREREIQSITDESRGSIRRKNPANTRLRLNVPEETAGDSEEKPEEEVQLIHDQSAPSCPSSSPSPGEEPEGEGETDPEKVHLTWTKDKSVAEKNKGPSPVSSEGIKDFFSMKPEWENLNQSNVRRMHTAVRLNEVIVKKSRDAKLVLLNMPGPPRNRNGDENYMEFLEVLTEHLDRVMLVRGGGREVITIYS
Compound,thallium flux rate (normalised fluorescence) [1],thallium flux slope [2],"raw Tl+ flux slope (below DMSO = inhibition, above = activation) [3]"
CCn1c(SCC#N)nc2c(c1=O)C1(CCCC1)Cc1ccccc1-2,inconclusive: 0.03,inconclusive: 0.0168,
O=C(Cn1cnc2c(nnn2Cc2ccccc2)c1=O)c1ccccc1,inconclusive: 0.00849,inactive: 0.0112,
O=C(O)c1cccc(Nc2nc(Nc3ccccc3)nc(N3CCCC3)n2)c1,inconclusive: 0.00599,inconclusive: 0.00809,
COc1ccc(-c2oc3ccccc3c(=O)c2OC(C)=O)cc1,inconclusive: 0.0517,inconclusive: 0.0167,
Cc1ccc(C)c(S(=O)(=O)NC(C)C(=O)Nc2ccc(-c3nc4ccccc4s3)cc2)c1 (stereo unspecified),inconclusive: 0.00822,inactive: 0.0111,
CCCCn1c(NC(=O)c2ccccc2)nc2ccccc21,inconclusive: 0.0246,inconclusive: 0.0129,
CC(=O)N1N=C2c3ccccc3CCC2C1c1ccc(F)cc1 (stereo unspecified),inconclusive: 0.00278,inactive: 0.0104,
N#C/C(=C\c1ccc(O)c(O)c1)C(=O)NCCCc1ccccc1,,,inconclusive: 0.0172
O=C(CSc1nc2cc(Cl)ccc2s1)Nc1cccc(S(=O)(=O)N2CCOCC2)c1,inconclusive: 0.0066,inconclusive: 0.0128,
COc1cc(/C=C(\C#N)C(=O)NCc2ccccc2)ccc1OCc1ccc(C(=O)O)cc1,,,inconclusive: 0.0178
Cc1c(Nc2nc(-c3ccc(Cl)cc3)cs2)c(=O)n(-c2ccccc2)n1C,,inconclusive: 0.00891,active: 0.0135
CCOC(=O)c1sc2nc[nH]c(=O)c2c1C,,inconclusive: 0.0106,inactive: 0.0234
CCn1nc(C)c(/C=N/NC(=S)Nc2ccc(Cl)cc2Cl)c1C,,inconclusive: 0.01,inconclusive: 0.0243
Cc1ccc(CNC(=O)c2cc3c(=O)n(C)c4ccccc4c3n2C)o1,,inconclusive: 0.0105,active: 0.0218
Cc1ccc2nc(N/C(=N/S(=O)(=O)c3ccc(F)cc3F)c3ccccc3)sc2c1,,inconclusive: 0.0126,inactive: 0.0192
Cn1c(C(=O)NCCc2ccsc2)cc2c(=O)n(C)c3ccccc3c21,,inactive: 0.00931,active: 0.0126
Cc1ccc(O)c(C2=NNC(c3ccc(Cl)cc3)C2)c1 (stereo unspecified),,inconclusive: 0.0112,inactive: 0.0265

Compound,thallium flux rate (normalised fluorescence) [1],thallium flux slope [2],"raw Tl+ flux slope (below DMSO = inhibition, above = activation) [3]"
O=C(N/N=C/c1ccc(-c2cccc(C(F)(F)F)c2)o1)c1cccc(F)c1,,inactive: 0.0105,inconclusive: 0.0277
CCOc1[nH]n(-c2ccccc2)c(=O)c1C=Nc1ccc(OC)cc1,,inconclusive: 0.0125,inactive: 0.021
Cc1cccc(/N=C/c2c(C)[nH]n(-c3ccccc3)c2=O)n1,,inconclusive: 0.0104,inconclusive: 0.0311
CC12CC3(C)CC(C)(C1)CC(C(=O)NC(=S)N1CCCC1)(C2)C3,,inconclusive: 0.0109,inconclusive: 0.0214
Cc1ccc(C)c(N2CCN(C(=O)CCCn3c(=S)[nH]c4cc5c(cc4c3=O)OCO5)CC2)c1,,inactive: 0.0118,inconclusive: 0.0234
O=C(NC(=S)NN1CCCCC1c1cccnc1)c1ccc(Cl)cc1Cl (stereo unspecified),,inconclusive: 0.0112,inconclusive: 0.0287
O=C(NC(=S)Nc1ccccc1Cl)c1cncc(C#Cc2ccccc2)c1,,inconclusive: 0.0115,inactive: 0.0298
CCOC(=O)c1c(C)[nH]c(N=Nc2ccccc2)c1C,,inconclusive: 0.0115,inconclusive: 0.0249
O=C(NC(=S)Nc1ccccc1N1CCCCC1)c1ccccc1,,inconclusive: 0.0142,active: 0.0277
C/C(=N\NC(=S)NCc1ccccc1)c1ccc2ccccc2c1,,inactive: 0.00931,inconclusive: 0.0235
Cc1cc(NS(=O)(=O)c2ccc(NC(=O)c3oc4ccccc4c3C)cc2)no1,,inactive: 0.0119,inconclusive: 0.0159
CCOc1ccc(NS(=O)(=O)c2ccc(NS(=O)(=O)c3ccccc3)cc2)cc1,,inactive: 0.0109,inconclusive: 0.0165
Cc1ccc(C(=O)CSc2ncnc3sc4c(c23)CCCC4)cc1,,inconclusive: 0.0123,active: 0.0304
CN(C(=O)CSc1nc2cc(Cl)ccc2c(=O)n1Cc1ccco1)C1CCS(=O)(=O)C1 (stereo unspecified),,inactive: 0.0117,inconclusive: 0.0252
O=C(O)Cc1sc(Nc2ccccc2)nc1-c1ccc(Cl)cc1,,inactive: 0.0106,inconclusive: 0.0171
CC(C)c1cccc(O)c(=O)c1,,inconclusive: 0.0102,active: 0.0262
Cc1ccc(/C=C(\CCC(=O)O)c2nc3ccccc3s2)cc1[N+](=O)[O-],,inconclusive: 0.00965,active: 0.01
